Measured values reported in PubChem BioAssay AID887 (National Center for Advancing Translational Sciences (NCATS), 2007).
Several values for one entry are separate records, joined by “and”; a condition that tells them apart may be missing. Identical values can stand only once. Among all 74,000 compounds or so, about 1,100 (1.5%) were called active. This list was built around the results that the source calls inconclusive (neither active nor inactive); the mix of calls is not that of the screen. Calls come from the whole dose curve; as a rule, active = well fitted inhibition curve with a large enough effect; inconclusive = small, poorly fitted or top-dose-only effect; inactive = no such curve, though single readings can be large or run the other way. Potencies of inconclusive entries are left out as doubtful fits. The source holds several records for some structures; these can differ, active in one and inactive in another.

target: Polyunsaturated fatty acid lipoxygenase ALOX15 (Homo sapiens) (UniProt P16050); assay: qHTS Assay for Inhibitors of 15-hLO (15-human lipoxygenase); settings: purified 15hLO-1, xylenol orange hydroperoxide absorbance; activity change, negative = inhibition: at 57.1 µM (top of the series) unless noted; note: nearly all actives have a fitted effect of over 55% in size
UniProt P16050, sequence (P16050 whole entry, looked up): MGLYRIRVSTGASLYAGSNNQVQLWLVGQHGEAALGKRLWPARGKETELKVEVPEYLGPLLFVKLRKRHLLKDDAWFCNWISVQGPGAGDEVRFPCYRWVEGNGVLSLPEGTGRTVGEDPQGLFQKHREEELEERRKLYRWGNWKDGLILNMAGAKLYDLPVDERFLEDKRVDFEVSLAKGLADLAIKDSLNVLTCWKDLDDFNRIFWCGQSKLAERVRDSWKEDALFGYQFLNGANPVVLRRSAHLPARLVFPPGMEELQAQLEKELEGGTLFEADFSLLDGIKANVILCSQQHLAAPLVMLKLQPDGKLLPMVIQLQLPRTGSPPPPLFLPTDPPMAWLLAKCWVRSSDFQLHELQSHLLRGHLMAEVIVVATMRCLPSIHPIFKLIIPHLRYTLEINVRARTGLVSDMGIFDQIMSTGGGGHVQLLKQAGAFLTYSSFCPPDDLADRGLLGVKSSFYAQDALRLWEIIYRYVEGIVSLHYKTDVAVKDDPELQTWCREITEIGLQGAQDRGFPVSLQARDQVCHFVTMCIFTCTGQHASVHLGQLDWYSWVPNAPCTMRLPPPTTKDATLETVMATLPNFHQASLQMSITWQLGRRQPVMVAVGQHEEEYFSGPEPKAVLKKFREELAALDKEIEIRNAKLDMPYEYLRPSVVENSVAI
Procedure, shortened: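 Quantitative HTS in 25 mM Hepes pH 7.5 containing 0.01% Triton X-100: human 15hLO-1 at 40 nM, arachidonic acid at 50 uM, 6 min turnover. Product quantified via ferrous oxidation/xylenol orange, 573:405 nm absorbance ratio.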
% is set by controls: 0 for no effect and ±100 for the full control effect; potency is the fitted concentration of half-maximal effect; tags give direction and shape of the fitted curve.

| Compound | activity change, negative = inhibition | Potency |
| --- | --- | --- |
| CCNc1ncc2nc(-c3cc(F)cc(F)c3)c(=O)n(CCc3ccccc3)c2n1 | inactive: -5.06% |  |
| O=C(Nc1cc(Cl)ccc1O)c1cc2n(n1)C(C(F)(F)F)CC(c1ccc3c(c1)OCO3)N2 (centres undefined) |  | inconclusive [inhibitor, partial curve] |
| CCOC(=O)C1=C(C)NC(=O)NC1c1ccc(OC(C)C(=O)O)c(OC)c1 (centres undefined) |  | active: 25.1 µM |
| O=C1C(Cl)=C(N2CCCCC2)C(=O)N1c1ccccc1Cl |  | inconclusive [inhibitor, partial curve] |
| Cc1ccc(-c2[nH]nc3c2C(c2ccoc2)C(C#N)=C(N)O3)cc1C (centres undefined) |  | active: 25.1 µM |
| CC(C)OCCCNC(=O)CNC(=O)c1cccs1 |  | inconclusive [inhibitor, single point] |
| Cc1ccc(SCc2cc(=O)[nH]c(N3CCCCC3)n2)cc1 |  | inconclusive [inhibitor, single point] |
| Cc1oc(-c2nc3ccccc3n2C)cc1C(=O)c1ccccc1 |  | inconclusive [inhibitor, single point] |
| N#Cc1c(NC(=O)CSc2nnc(-c3ccccc3O)n2-c2ccccc2)sc2c1CCCC2 | inactive: -8.47% |  |
| Cc1ccc(-c2csc(NC(=O)c3cccc(N4C(=O)CCC4=O)c3)n2)o1 |  | inconclusive [inhibitor, partial curve] |
| O=C(Cc1cccs1)Nc1nc2c(s1)CCCC2 | inactive: -0.924% |  |
| Cc1ccc(C(=O)CCNc2cccc(Br)c2)o1 |  | active: 12.6 µM |
| COCCCN=C(c1ccco1)n1c(=S)nc(-c2ccco2)n(CCCOC)c1=S |  | inconclusive [inhibitor, partial curve] |
| CCOCC(=O)N1CCCC(C(=O)OCC)C1 (centres undefined) | inactive: -0.559% |  |
| CCOC(=O)Cn1c(CCC(=O)O)ccc1-c1ccc(F)cc1 |  | inconclusive [inhibitor, single point] |
| Cn1c(=O)[nH]c(=O)c2c1nc(CN1CCN(c3cccc(Cl)c3)CC1)n2CCN1CCOCC1 | inactive: -1.7% |  |
| CCCc1cc(C(=O)N2CCN(c3ccccc3C)CC2)cs1 |  | inconclusive [inhibitor, partial curve] |
| COc1cccc(N(C(=O)c2cccs2)c2nc3ccccc3s2)c1 | inactive: -8.61% |  |
| COc1ccc2[nH]c(=O)c(CN(Cc3ccc(C)cc3)Cc3nnnn3CC3CCCO3)cc2c1 (centres undefined) |  | inconclusive [inhibitor, partial curve] |
| NCCCCCc1nnc(SCC(=O)c2ccc(Cl)cc2)o1 |  | inconclusive [inhibitor, single point] |
| CC(C)CN1CCc2nc(-c3ccccc3)c3c(c2C1)COC(C)C3 (centres undefined) | inactive: -12.9% [at 11.4 µM] |  |
| Cc1cccc(N(CC(=O)NCc2ccc3c(c2)OCO3)C(=O)CCC(=O)Nc2ccccn2)c1 | inactive: -10% |  |
| Cc1ccc(CNC(=O)CSc2nc(N3CCCCC3)nc(N3CCCCC3)n2)cc1 |  | inconclusive [inhibitor, partial curve] |
| O=C1CC(c2ccc(O)c(O)c2)Oc2cc(O)cc(O)c21 (centres undefined) |  | active: 10 µM |
| Cc1cccc(C)c1NC(=O)Nc1cccs1 |  | active: 25.1 µM |

| Compound | activity change, negative = inhibition | Potency |
| --- | --- | --- |
| O=c1c(O)c(-c2ccc(O)cc2O)oc2cc(O)cc(O)c12 |  | inconclusive [inhibitor, single point] |
| Nc1ccc(-c2nnc(-c3ccc(-c4ccccc4)cc3)o2)cc1 |  | inconclusive [inhibitor, partial curve] |
| CN1/C(=C/C(=O)c2nc(S(C)(=O)=O)ncc2Cl)C(C)(C)c2ccccc21 | inactive: -15.2% |  |
| O=C1CC(c2ccco2)CC(O)=C1C=NCC1CCNCC1 (centres undefined) |  | inconclusive [inhibitor, partial curve] |
| COC(=O)Cn1c(CN2CCN(c3ccc(F)cc3)CC2)nc2c1c(=O)n(C)c(=O)n2C |  | inconclusive [inhibitor, single point] |
| CN(CC(=O)N1CCN(C2CCCCC2)CC1)S(=O)(=O)c1cccc2nsnc12 |  | inconclusive [inhibitor, single point] |
| c1ccc(C(c2ccccc2)N2CCC3(CCNCC3)CC2)cc1 | inactive: 14.5% |  |
| CC1=C(C(=O)Nc2ccccc2)C(c2cccs2)C(C#N)=C(SCC#N)N1 (centres undefined) |  | inconclusive [inhibitor, single point] |
| CCOc1cc2c3c(c1)C1(C(=O)N3C(C)(C)C=C2C)C(C#N)=C(N)Oc2cc(O)ccc21 (centres undefined) |  | inconclusive [inhibitor, single point] |
| COc1ccccc1CC(Cc1nc2ccccc2[nH]1)c1nc2ccccc2[nH]1 (centres undefined) | inactive: -26% [at 25.6 µM] |  |
| Cc1ccc(N2C(N)=C(C#N)C(c3cccnc3)C3=C2CC(C)(C)CC3=O)cc1 (centres undefined) |  | inconclusive [inhibitor, partial curve] |
| Cc1ccc([N+](=O)[O-])cc1S(=O)(=O)N(C)C |  | inactive and active: 25.1 µM |
| CC#C[C@]1(O)CC[C@H]2[C@@H]3CCC4=CC(=O)CCC4=C3[C@H](c3ccc(N(C)C)cc3)C[C@@]21C |  | active: 10 µM |
| Nc1nc(SCC(=O)c2ccc(Br)cc2)c2[nH]cnc2n1 | inactive: -0.333% [at 11.4 µM] |  |
| N#CC(C(=O)OC1CCCCC1)c1nc2ccccc2nc1N1CCOCC1 (centres undefined) | inactive: 1.26% |  |
| Nc1ccc(N2CCCCCC2)cc1 |  | active: 3.16 µM |
| CC[C@]1(O)C[C@@H]2CN(CCc3c([nH]c4ccccc34)[C@](C(=O)OC)(c3cc4c(cc3OC)N(C=O)[C@H]3[C@@](O)(C(=O)OC)[C@H](C(=O)OC)[C@@]5(CC)C=CCN6CC[C@]43[C@H]65)C2)C1 |  | inconclusive [inhibitor, partial curve, poor fit] |
| COC(=O)c1cnn(-c2ccc(C)c(C)c2)c1-n1cccc1 |  | inconclusive [inhibitor, partial curve] |
| O=C1OCCN1/N=C/c1ccc([N+](=O)[O-])o1 |  | inconclusive [inhibitor, single point] |
| O=C1C2=C(Nc3cc([N+](=O)[O-])ccc3N2)O[C@@H]1c1ccc([C@H]2OC3=C(Nc4ccc([N+](=O)[O-])cc4N3)C2=O)cc1 |  | inconclusive [inhibitor, single point] |
| COc1ccccc1OCCn1c(CO)nc2ccccc21 | inactive: 2.59% |  |
| Cc1cccc(N2CCN(C(=O)c3cc4c(=O)[nH]c5ccccc5c4n3C)CC2)c1C |  | inconclusive [inhibitor, partial curve] |
| CC12CS(=O)(=O)CC1SC(=S)N2c1ccccn1 (centres undefined) |  | inconclusive [inhibitor, full curve, poor fit] |
| Oc1ccc([C@@H]2CNCc3sccc32)cc1O |  | inconclusive [inhibitor, full curve] |
| OC1CCN(c2c3c(nc4cc(-c5cccc(F)c5)nn24)CCCC3)CC1 |  | inconclusive [inhibitor, full curve] |

| Compound | activity change, negative = inhibition | Potency |
| --- | --- | --- |
| Nc1nc(-c2c[nH]c3ccccc23)cs1 |  | inconclusive [inhibitor, single point] |
| CCNc1nc(NC(C)C)nc(Nn2cnnc2)n1 | inactive: 20.6% |  |
| COCCNc1ncnc2ccc(-c3ccccc3C(F)(F)F)cc12 |  | active: 25.1 µM |
| COCCNC(=O)CSc1ccc(C)cc1 | inactive: 9.32% [at 11.4 µM] |  |
| Cc1nnc(SCc2cnc(-c3ccc(C(C)C)cc3)s2)n1C | inactive: 15.8% |  |
| Cc1cc(C(=O)N2CCN(c3ncccn3)CC2)c(C)o1 | inactive: 9.05% |  |
| O=C(c1cc2ccccc2oc1=O)N1CCN(c2ccc(N3CCOCC3)nn2)CC1 | inactive: 4.11% |  |
| CCCc1cc(C(N)=O)c(NC(=O)C2CCCO2)s1 (centres undefined) |  | active: 25.1 µM |
| CCC(C)NC(=O)CSc1nc2n[nH]c(C)c2c(=N)n1-c1ccc(OC)cc1 (centres undefined) | inactive: -7.95% |  |
| COc1cccc(Cn2c(=O)c(-c3ccc(F)cc3)nc3cncnc32)c1 |  | inconclusive [inhibitor, single point] |
| Cc1ccc(/C=N/c2sc3c(c2C#N)CCCCC3)o1 |  | active: 25.1 µM |
| CSc1nnc2c(n1)OC(c1cccn1C)N(C(C)=O)c1ccccc1-2 (centres undefined) | inactive: -3.14% |  |
| CC(=O)OCC1OC(C#Cc2ccccc2)C=CC1O (centres undefined) | inactive: 9.42% [at 11.4 µM] |  |
| COc1ccc(NC(=O)CSc2nnc(-c3ccccc3Cl)n2Cc2ccco2)c(OC)c1 | inactive: -7.76% |  |
| CC(C)C(c1nnnn1Cc1ccccc1)N1CCN(Cc2ccco2)CC1 (centres undefined) |  | inconclusive [inhibitor, single point] |
| CS(=O)(=O)Nc1cccc(-c2ccc3ncnc(Nc4ccccc4)c3c2)c1 | inactive: 2.56% |  |
| Cc1cc2c(N=O)c(NO)ccc2[nH]1 |  | inconclusive [inhibitor, single point] |
| CC(=O)Nc1cc(OC(C)=O)c2nonc2c1OC(C)=O |  | inconclusive [inhibitor, partial curve] |
| CN1CCc2nc(-c3ccccc3)c(-c3ccccc3)cc2C1 | inactive: 3.18% [at 11.4 µM] |  |
| COc1ccccc1CNc1nc(-c2ccccc2OC)nc2ccccc12 |  | inconclusive [inhibitor, single point] |
| CCC(c1nnnn1CC1CCCO1)N(CCN1CCOCC1)Cc1cc2cc(C)ccc2[nH]c1=O (centres undefined) |  | active: 3.16 µM |
| C#C[C@@]1(O)CC[C@@H]2[C@@H]3CCC4=C(CCC(=O)C4)[C@H]3CC[C@]21C |  | inconclusive [inhibitor, partial curve] |
| CC(=O)N1CCN(c2ccc(NCc3ccc(F)cc3)cc2)CC1 |  | active: 10 µM |
| C=CCc1cccc(C2Nc3ccccc3C(=O)N2O)c1O (centres undefined) |  | inconclusive [inhibitor, partial curve] |
